The test system of experiment [1] is HSkMC (human skeletal muscle cells). The experiment is described as follows: cytotoxicity call (relative viability < 0.9). As to conditions: 10 µM.
For experiment [2], the system named is HepG2. Nature of the experiment: cytotoxicity call (relative viability < 0.9). As to conditions: 10 µM.
Experiment [3] concerns S. aureus RN4220. Nature of the experiment: growth inhibition call (relative growth <= 0.2). As to conditions: 50 µM.

This is one part of the list.

Experimental findings from the antibiotic and cytotoxicity screens of Wong et al. (2023) are described below.

Turning to `CNCc1cccnc1`, in experiment [1], the cytotoxicity call was “inactive”. Moreover, the cytotoxicity call in experiment [2] was “active”. In addition, the growth inhibition call in experiment [3] is “inactive”.

In the case of `CC(C)[C@@H](Br)C(=O)NC(N)=O`, the cytotoxicity call in experiment [1] and in experiment [2] was “inactive” throughout. Further, in experiment [3], the growth inhibition call is “inactive”.

Turning to `CCC1(c2ccc(N)cc2)CCC(=O)NC1=O` (centres undefined), the cytotoxicity call in experiment [1] and in experiment [2] was “inactive” in each case. Moreover, in experiment [3], the growth inhibition call is “inactive”.

As to `CC[n+]1c(-c2ccccc2)c2cc(N)ccc2c2ccc(N)cc21.[Br-]`, the cytotoxicity call in experiment [1] was “inactive”. Besides, the cytotoxicity call in experiment [2] was “active”. Besides, the growth inhibition call in experiment [3] is “inactive”.

Regarding `O=C1[O][SbH]23[O]C(=O)[C@H]([O]2)[C@H]2[O][SbH]4([O]C(=O)[C@H]([O]4)[C@H]1[O]3)[O]C2=O`, the cytotoxicity call in experiment [1] and in experiment [2] was “active” each time. Also, in experiment [3], the growth inhibition call is “active”.

Take `C[CH2][Hg][S]c1ccccc1C(=O)[O-].[Na+]`: the cytotoxicity call in experiment [1] and in experiment [2] was “active” each time. Besides, in experiment [3], the growth inhibition call was “active”.

Turning to `O=C1COC2(CNC2)CN1`, the cytotoxicity call in experiment [1] and in experiment [2] was “inactive” in each case. For the same compound, the growth inhibition call in experiment [3] was “inactive”.

Turning to `COc1cccc(N=[N+]=[N-])c1`, the cytotoxicity call in experiment [1] and in experiment [2] was “inactive” each time. In addition, the growth inhibition call in experiment [3] was “inactive”.
